Source: PubChem BioAssay (NCATS)
This list was built around the results that the source calls inconclusive (neither active nor inactive); the mix of calls is not that of the screen. For some of these results: Potencies beside an inconclusive call are fits to weak or partial responses and may not hold up. The source made the active and inactive calls. Calls come from the whole dose curve; as a rule, active = well fitted curve in the direction sought with a large enough effect; inconclusive = small, poorly fitted or top-dose-only effect, or another doubt; inactive = no such curve, though single readings can be large; an effect the other way counts as inactive or inconclusive.

Tests used:
[1] = Primary qHTS for inhibitors of nuclear receptor binding SET domain protein 2 (NSD2) in an RCH-ACV wild type WT cells (2C) (AID 1645877); conditions: RCH-ACV NSD2 WT (2C) viability, CellTiter-Glo, 72 h; activity change, negative = cell killing: at 44.9 µM (top of the series); series mostly up to 44.9 µM; note: nearly all actives have a fitted effect of over 70% in size
HEK293 = assay: Cytotoxic Profiling of Annotated Libraries Using Quantitative High-Throughput Screening (AID 1296008); conditions: Five cell lines viability, CellTiter-Glo ATP luminescence, 48-72 h; max response: hits give low values; note: nearly all actives have a fitted effect of over 60% in size
Outline: (§1)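 Cytotoxicity was measured as CellTiter-Glo ATP luminescence, read after 10 min at room temperature. Compound treatment of the cells lasted 48 or 72 hr at 37 degrees Celsius in a qHTS format.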

NIH3T3 = assay: as above; conditions: Five cell lines viability, CellTiter-Glo ATP luminescence, 48-72 h; max response: hits give low values
Outline: as §1

C33A = assay: Primary qHTS to identify gynecologic anti-cancer compounds using libraries of approved drugs and bioactive compounds (AID 1345084); conditions: Gynecologic cancer cell panel viability, ATPlite luminescence, 48 h; series mostly up to 57.5 µM; note: nearly all actives have a fitted effect of over 55% in size; for activity change, negative = cytotoxicity: % is set by controls: 0 for no effect and ±100 for the full control effect
Outline: (§2)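 ATP-based viability (ATPlite), 1,000 cells/well, 16 h pre-incubation, 48 h compound at 37 C, 5% CO2, 15 min RT before read.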

CAOV3 = assay: as above; conditions: Gynecologic cancer cell panel viability, ATPlite luminescence, 48 h; series mostly up to 57.5 µM
Outline: as §2

JEG-3 = assay: as above; conditions: Gynecologic cancer cell panel viability, ATPlite luminescence, 48 h; series mostly up to 57.5 µM
Outline: as §2

[2] = P-glycoprotein substrates identified in KB-8-5-11 adenocarcinoma cell line, qHTS therapeutic library screen (AID 1346987); conditions: KB-8-5-11 (P-gp overexpressing) viability, CellTiter-Glo, 72 h; series mostly up to 44.5 µM; note: nearly all actives have a fitted effect of over 65% in size
Outline: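 Steps: plate 500 KB-8-5-11 cells/well in DMEM + 10% FCS (colchicine removed); pin compounds in dose-response; incubate 72 h, 37 degree C, 5% CO2; add CellTiter-Glo, 5 min; read luminescence.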

SKOV3 = assay: Primary qHTS to identify gynecologic anti-cancer compounds using libraries of approved drugs and bioactive compounds (AID 1345084); conditions: Gynecologic cancer cell panel viability, ATPlite luminescence, 48 h; series mostly up to 57.5 µM; note: nearly all actives have a fitted effect of over 55% in size; for activity change, negative = cytotoxicity: % is set by controls: 0 for no effect and ±100 for the full control effect
Outline: as §2

[3] = tested on: Zika virus NS2B-NS3 protease (unlinked complex); assay: Primary screen GU Rhodamine qHTS for Zika virus inhibitors: Unlinked NS2B-NS3 protease assay (AID 1347159); conditions: Recombinant ZIKV NS2B-NS3 protease, Rhodamine110 substrate fluorescence; series mostly up to 107 µM; note: nearly all actives have a fitted effect of over 60% in size
Outline: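 Percent inhibition derives from the 15-min fluorescence change (ex 480, em 540 nm), normalized to no-enzyme and no-inhibitor wells. Reactions contained 25 nM NS2B-NS3 complex and 1.5 microM substrate in 10 mM Tris-HCl pH 8.0.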

[4] = Primary qHTS for inhibitors of nuclear receptor binding SET domain protein 2 (NSD2) in an isogenic RCH-ACV NSD2 p.E1099K mutant (9B) (AID 1645876); conditions: RCH-ACV (leukaemia line) NSD2 E1099K (9B) viability, CellTiter-Glo, 72 h; series mostly up to 44.9 µM; note: nearly all actives have a fitted effect of over 70% in size
CASKI = assay: Primary qHTS to identify gynecologic anti-cancer compounds using libraries of approved drugs and bioactive compounds (AID 1345084); conditions: Gynecologic cancer cell panel viability, ATPlite luminescence, 48 h; activity change, negative = cytotoxicity: at 57.5 µM (top of the series); note: nearly all actives have a fitted effect of over 55% in size; for activity change, negative = cytotoxicity: % is set by controls: 0 for no effect and ±100 for the full control effect
Outline: as §2

Hek293T = assay: as above; conditions: Gynecologic cancer cell panel viability, ATPlite luminescence, 48 h, control line for the selectivity index; series mostly up to 57.5 µM
Outline: as §2

OV90 = assay: as above; conditions: Gynecologic cancer cell panel viability, ATPlite luminescence, 48 h; series mostly up to 57.5 µM
Outline: as §2

[5] = tested on: Zika virus NS2B-NS3 protease (linked construct); assay: Primary screen NINDS Rhodamine qHTS for Zika virus inhibitors (AID 1347160); conditions: purified NS2B-NS3 protease, Rhodamine110 substrate fluorescence; series mostly up to 57.1 µM; note: nearly all actives have a fitted effect of over 55% in size
Outline: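 In 10 mM Tris-HCl pH 8.0 containing 0.01% Tween 20, linked NS2B-NS3 protease (25 nM final) is exposed to test compounds for 15 min. Cleavage of 1.5 microM Rhodamine110 substrate is tracked by fluorescence over 15 min.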

[6] = Primary fluorescence-based thiol-reactive (MSTI) qHTS assay for identification of artifact compounds. (AID 1845221); conditions: MSTI thiol-reactivity probe, 1 h; series mostly up to 53.8 µM;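 note: thiol-reactive compounds lower the probe fluorescence signal; nearly all actives have a fitted effect of over 65% in size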
Outline: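 A multi-concentration qHTS design tested compounds against 4 uM MSTI, pH 7.4 phosphate-buffered saline. Plates were protected from light for 1 h at room temperature before imaging fluorescence.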

Tov-21-G = assay: Primary qHTS to identify gynecologic anti-cancer compounds using libraries of approved drugs and bioactive compounds (AID 1345084); conditions: Gynecologic cancer cell panel viability, ATPlite luminescence, 48 h; activity change, negative = cytotoxicity: at 57.5 µM (top of the series); note: nearly all actives have a fitted effect of over 55% in size; for activity change, negative = cytotoxicity: % is set by controls: 0 for no effect and ±100 for the full control effect
Outline: as §2

[7] = Primary redox qHTS assay for identification of artifact compounds. (AID 1845223); conditions: Amplex Red/HRP redox cycling with DTT, fluorescence; series mostly up to 53.8 µM
Outline: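 Amplex Red (25 uM) and HRP (250 mU/mL) in HBSS, with compounds for 15 min, then 250 uM DTT for 30 min, room temperature, dark. Fluorescence 525/598 nm read; normalized to DMSO and 10 uM DA3003; Hill fit.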
Potency is the fitted concentration of half-maximal effect; tags give direction and shape of the fitted curve.

## COC(CCc1ccc(O)cc1)CC(=O)CCc1ccc(O)cc1 (stereo unspecified)
[1]
  Potency: active: 8.98 µM
HEK293
  Potency: inconclusive: 20.2 µM [inhibitor, single point]
NIH3T3
  Potency: inconclusive: 1.43 µM [inhibitor, partial curve, poor fit]
C33A
  Potency: inactive
CAOV3
  Potency: inconclusive: 12.6 µM [cytotoxic, single point]
JEG-3
  Potency: inconclusive: 5.01 µM [rising, single point]

## O=C(O)c1cc2cccc([N+](=O)[O-])c2[nH]1
[2]
  Potency: inactive
HEK293
  max response: inactive: 2.87%
NIH3T3
  Potency: inconclusive: 23.1 µM [inhibitor, single point]
C33A
  Potency: inconclusive: 6.31 µM [cytotoxic, single point]
CAOV3
  Potency: inactive
SKOV3
  Potency: inactive

## CC(CNS(=O)(=O)C(C)C)c1ccc(-c2ccc(C#N)cc2)cc1 (stereo unspecified)
[2]
  Potency: inconclusive: 3.26 µM [inhibitor, full curve]
[3]
  Potency: inconclusive: 89.1 µM [inhibitor, single point]
[4]
  Potency: inconclusive: 3.65 µM [inhibitor, partial curve]
[1]
  Potency: active: 8.17 µM
HEK293
  Potency: active: 7.31 µM
NIH3T3
  max response: inactive: -14.2%
C33A
  Potency: inconclusive: 12.6 µM [cytotoxic, partial curve]
CASKI
  Potency: inconclusive: 22.4 µM [cytotoxic, single point]
Hek293T
  Potency: inconclusive: 8.91 µM [cytotoxic, full curve]
JEG-3
  Potency: inconclusive: 39.8 µM [cytotoxic, single point]
OV90
  Potency: active: 10 µM
SKOV3
  Potency: active: 8.91 µM

## C=Cc1cc(O)cc2nc(-c3ccc(O)c(F)c3)oc12
[2]
  Potency: inactive
[3]
  Potency: active: 35.5 µM
[5]
  Potency: inconclusive: 20 µM [inhibitor, partial curve]
[4]
  Potency: inconclusive: 23.5 µM [inhibitor, single point]
[1]
  Potency: inconclusive: 29.5 µM [inhibitor, single point]
HEK293
  outcome: inactive
NIH3T3
  outcome: inactive
C33A
  Potency: inactive
JEG-3
  Potency: inactive
OV90
  Potency: inconclusive: 17.8 µM [cytotoxic, partial curve]

## CC(C)CCC[C@@H](C)[C@H]1CC[C@H]2[C@@H]3CC=C4C[C@@H](OC(=O)NCCN(C)C)CC[C@]4(C)[C@H]3CC[C@]12C
[4]
  Potency: inconclusive: 29 µM [inhibitor, single point]
[1]
  Potency: inconclusive: 23 µM [inhibitor, single point]
[6]
  Potency: inactive
HEK293
  Potency: inconclusive: 18.4 µM [inhibitor, single point]
NIH3T3
  Potency: inconclusive: 29.1 µM [inhibitor, single point]
CAOV3
  Potency: inconclusive: 35.5 µM [cytotoxic, single point]
CASKI
  Potency: inconclusive: 39.8 µM [cytotoxic, single point]
SKOV3
  Potency: active: 22.4 µM

## C=C1C(=O)OC2/C=C(\C)CC/C=C(\C=O)C(OC)C(OC(=O)C(C)CC)C12 (stereo unspecified)
[3]
  Potency: inconclusive: 50.1 µM [inhibitor, single point]
[1]
  Potency: active: 2.84 µM
[6]
  Potency: inconclusive: 20.7 µM [inhibitor, partial curve]
HEK293
  Potency: inconclusive: 20.2 µM [inhibitor, single point]
NIH3T3
  Potency: inconclusive: 12.8 µM [inhibitor, partial curve, poor fit]
CAOV3
  Potency: inactive
Hek293T
  Potency: inconclusive: 12.6 µM [cytotoxic, single point]
Tov-21-G
  Potency: inconclusive: 28.2 µM [cytotoxic, single point]

## CC1CCC/C=C/C(=O)c2c(O)cc(O)cc2CC(=O)O1 (stereo unspecified)
[2]
  Potency: active: 5.8 µM
[3]
  Potency: inconclusive: 44.7 µM [inhibitor, partial curve, poor fit]
[7]
  Potency: inconclusive: 29.9 µM [activator, single point]
HEK293
  Potency: active: 4.11 µM
NIH3T3
  Potency: active: 14.6 µM
CAOV3
  Potency: inconclusive: 39.8 µM [cytotoxic, single point]
Hek293T
  Potency: active: 14.1 µM
JEG-3
  Potency: active: 14.1 µM
OV90
  Potency: inconclusive: 31.6 µM [cytotoxic, single point]
SKOV3
  Potency: active: 22.4 µM
Tov-21-G
  Potency: inconclusive: 11.2 µM [cytotoxic, partial curve]
